The list shows a part of the results. No stated cut-off is given here; in the data, active = 3.2 or more and inactive = the rest. Most of these values are background signal.
Assays:
Test in all cases: enrichment score (SH2-bound / input frequency) (ratio); bacterial display of known human phosphotyrosine sites (pTyr-Var adds point mutants) read by sequencing; higher = stronger binding; tyrosines were phosphorylated by kinases first
Details in all cases: peptide library: pTyr-Var
SHP2 C-SH2 domain E139D = biological target: SHP2 C-SH2 domain E139D
[1] = biological target: SHP2 C-SH2 domain wild-type
SHP2 N-SH2 domain L43F = biological target: SHP2 N-SH2 domain L43F
SHP2 N-SH2 domain T42A = biological target: SHP2 N-SH2 domain T42A
SHP2 N-SH2 domain T52S = biological target: SHP2 N-SH2 domain T52S
[2] = biological target: SHP2 N-SH2 domain wild-type

Measured: enrichment score
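Further: displayed peptides selected on beads carrying the immobilized SH2 domain, with library peptides lacking any tyrosine serving as negative controls.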

B1: MYH7_Y103_D107E (peptide)
chain: EPAVLYNLKER
inactive: SHP2 C-SH2 domain E139D 1.73 | [1] 1.49 | SHP2 N-SH2 domain L43F 1.56 | SHP2 N-SH2 domain T42A 0.942 | SHP2 N-SH2 domain T52S 1.72 | [2] 1.58

B2: MYH7_Y266_I263T (peptide)
chain: ADTETYLLEKS
inactive: SHP2 C-SH2 domain E139D 0.654 | [1] 0.676 | SHP2 N-SH2 domain L43F 0.699 | SHP2 N-SH2 domain T42A 0.546 | SHP2 N-SH2 domain T52S 0.546 | [2] 0.729

B3: MYH7_Y386_L390P (peptide)
chain: ADKSAYLMGPN
inactive: SHP2 C-SH2 domain E139D 0.818 | [1] 0.659 | SHP2 N-SH2 domain L43F 0.638 | SHP2 N-SH2 domain T42A 0.522 | SHP2 N-SH2 domain T52S 0.579 | [2] 0.603

B4: MYH7_Y410_G407V (peptide)
chain: KVVNEYVTKGQ
inactive: SHP2 C-SH2 domain E139D 0.733 | [1] 0.736 | SHP2 N-SH2 domain L43F 0.733 | SHP2 N-SH2 domain T42A 0.65 | SHP2 N-SH2 domain T52S 0.744 | [2] 0.836

B5: MYH7_Y410_V411I (peptide)
chain: KVGNEYITKGQ
inactive: SHP2 C-SH2 domain E139D 0.844 | [1] 0.82 | SHP2 N-SH2 domain L43F 0.768 | SHP2 N-SH2 domain T42A 0.889 | SHP2 N-SH2 domain T52S 0.714 | [2] 0.932

B6: MYH7_Y582_G584S (peptide)
chain: FSLIHYASIVD
active: SHP2 C-SH2 domain E139D 7.7 | [1] 7.88 | SHP2 N-SH2 domain L43F 4.3 | SHP2 N-SH2 domain T42A 8.31 | SHP2 N-SH2 domain T52S 4.9
inactive: [2] 2.16

B7: MYH7_Y588_G584S (peptide)
chain: ASIVDYNIIGW
inactive: SHP2 C-SH2 domain E139D 0.814 | [1] 0.721 | SHP2 N-SH2 domain L43F 0.718 | SHP2 N-SH2 domain T42A 0.999 | SHP2 N-SH2 domain T52S 0.675 | [2] 0.815

B8: MYH9_Y151_Y151C (peptide)
chain: MPPHICAITDT
inactive: SHP2 C-SH2 domain E139D 1.36 | [1] 1.35 | SHP2 N-SH2 domain L43F 1.12 | SHP2 N-SH2 domain T42A 1.16 | SHP2 N-SH2 domain T52S 1.11 | [2] 2.1

B9: MYL6_Y86 (peptide)
chain: KDQGTYEDYVE
inactive: SHP2 C-SH2 domain E139D 0.509 | [1] 0.46 | SHP2 N-SH2 domain L43F 0.376 | SHP2 N-SH2 domain T42A 0.476 | SHP2 N-SH2 domain T52S 0.735 | [2] 0.6

B10: MYL6_Y89_T85I_YF (peptide)
chain: GIFEDYVEGLR
inactive: SHP2 C-SH2 domain E139D 1.04 | [1] 1 | SHP2 N-SH2 domain L43F 1.07 | SHP2 N-SH2 domain T42A 0.854 | SHP2 N-SH2 domain T52S 0.862 | [2] 0.841

B11: MYLK_Y611 (peptide)
chain: SRKSEYLLPVA
inactive: SHP2 C-SH2 domain E139D 0.769 | [1] 0.723 | SHP2 N-SH2 domain L43F 0.836 | SHP2 N-SH2 domain T42A 0.697 | SHP2 N-SH2 domain T52S 1.11 | [2] 0.807

B12: MYO1B_Y967_E969K (peptide)
chain: PFQGAYLKINK
inactive: SHP2 C-SH2 domain E139D 1.18 | [1] 1.68 | SHP2 N-SH2 domain L43F 1.36 | SHP2 N-SH2 domain T42A 1.36 | SHP2 N-SH2 domain T52S 1.11 | [2] 1.28

B13: MYO1D_Y586_R588H (peptide)
chain: SKEPYYVHCIK
inactive: SHP2 C-SH2 domain E139D 0.73 | [1] 0.903 | SHP2 N-SH2 domain L43F 0.6 | SHP2 N-SH2 domain T42A 0.76 | SHP2 N-SH2 domain T52S 0.608 | [2] 0.749

B14: MYO7A_Y1668_S1666G (peptide)
chain: PTDGVYVMPTV
inactive: SHP2 C-SH2 domain E139D 0.665 | [1] 0.708 | SHP2 N-SH2 domain L43F 0.58 | SHP2 N-SH2 domain T42A 0.388 | SHP2 N-SH2 domain T52S 0.532 | [2] 0.764

B15: MYO9A_Y203 (peptide)
chain: KYVKMYDNHQL
inactive: SHP2 C-SH2 domain E139D 0.889 | [1] 0.773 | SHP2 N-SH2 domain L43F 0.912 | SHP2 N-SH2 domain T42A 0.833 | SHP2 N-SH2 domain T52S 2.3 | [2] 0.94

B16: MYOC_Y479_I477N (peptide)
chain: SSMNDYNPLEK
inactive: SHP2 C-SH2 domain E139D 0.731 | [1] 0.768 | SHP2 N-SH2 domain L43F 0.735 | SHP2 N-SH2 domain T42A 0.658 | SHP2 N-SH2 domain T52S 0.724 | [2] 0.79

B17: MYOC_Y479_I477S (peptide)
chain: SSMSDYNPLEK
inactive: SHP2 C-SH2 domain E139D 0.629 | [1] 0.596 | SHP2 N-SH2 domain L43F 0.576 | SHP2 N-SH2 domain T42A 0.622 | SHP2 N-SH2 domain T52S 0.617 | [2] 0.876

B18: MYOC_Y479_N480K (peptide)
chain: SSMIDYKPLEK
inactive: SHP2 C-SH2 domain E139D 0.48 | [1] 0.466 | SHP2 N-SH2 domain L43F 0.615 | SHP2 N-SH2 domain T42A 0.509 | SHP2 N-SH2 domain T52S 0.732 | [2] 0.673

B19: MYOF_Y1137 (peptide)
chain: NFDRVYIYHLR
active: SHP2 N-SH2 domain L43F 3.3 | SHP2 N-SH2 domain T52S 4.33
inactive: SHP2 C-SH2 domain E139D 2.38 | [1] 3.1 | SHP2 N-SH2 domain T42A 1.64 | [2] 1.88

B20: MYOF_Y1137_V1136I_YF (peptide)
chain: NFDRIYIFHLR
inactive: [1] 2.78 | SHP2 N-SH2 domain L43F 2.96 | SHP2 N-SH2 domain T42A 2.58 | SHP2 N-SH2 domain T52S 2.96 | [2] 3.02
active: SHP2 C-SH2 domain E139D 3.21

B21: MYOF_Y1705_G1701A (peptide)
chain: YAGRDYSLDEF
inactive: SHP2 C-SH2 domain E139D 0.756 | [1] 0.724 | SHP2 N-SH2 domain L43F 0.891 | SHP2 N-SH2 domain T42A 0.712 | SHP2 N-SH2 domain T52S 0.651 | [2] 0.667

B22: MYOM2_Y1024 (peptide)
chain: KSELAYEIFDK
inactive: SHP2 C-SH2 domain E139D 0.827 | [1] 0.87 | SHP2 N-SH2 domain L43F 0.879 | SHP2 N-SH2 domain T42A 0.719 | SHP2 N-SH2 domain T52S 0.847 | [2] 0.859

B23: MYOM2_Y317 (peptide)
chain: PRAEWYRDDVL
inactive: SHP2 C-SH2 domain E139D 0.842 | [1] 0.871 | SHP2 N-SH2 domain L43F 0.762 | SHP2 N-SH2 domain T42A 0.722 | SHP2 N-SH2 domain T52S 0.879 | [2] 0.777

B24: MYORG_Y36 (peptide)
chain: AAAAMYTFLPD
inactive: SHP2 C-SH2 domain E139D 1.24 | [1] 1.15 | SHP2 N-SH2 domain L43F 1.01 | SHP2 N-SH2 domain T42A 0.93 | SHP2 N-SH2 domain T52S 1.01 | [2] 1.2

B25: NANS_Y71 (peptide)
chain: ALERPYTSKHS
inactive: SHP2 C-SH2 domain E139D 0.762 | [1] 0.626 | SHP2 N-SH2 domain L43F 0.675 | SHP2 N-SH2 domain T42A 0.533 | SHP2 N-SH2 domain T52S 0.799 | [2] 0.948

B26: NATD1_Y45_V42I (peptide)
chain: RAILLYEYVGK
active: SHP2 C-SH2 domain E139D 3.87 | [1] 3.56 | SHP2 N-SH2 domain L43F 3.48 | SHP2 N-SH2 domain T42A 3.25
inactive: SHP2 N-SH2 domain T52S 3.06 | [2] 3.06

B27: NATD1_Y45_V42I_YF (peptide)
chain: RAILLYEFVGK
inactive: SHP2 C-SH2 domain E139D 2.42 | [1] 2.91 | SHP2 N-SH2 domain L43F 2.49 | SHP2 N-SH2 domain T42A 2.53 | SHP2 N-SH2 domain T52S 2.52 | [2] 3.06

B28: NATD1_Y45_YF (peptide)
chain: RAVLLYEFVGK
inactive: SHP2 C-SH2 domain E139D 1.91 | [1] 2.38 | SHP2 N-SH2 domain L43F 2.16 | SHP2 N-SH2 domain T42A 2.02 | SHP2 N-SH2 domain T52S 2.36 | [2] 2.27

B29: NBEAL2_Y1835 (peptide)
chain: SSAETYSRMRL
inactive: SHP2 C-SH2 domain E139D 0.7 | [1] 0.638 | SHP2 N-SH2 domain L43F 0.663 | SHP2 N-SH2 domain T42A 0.583 | SHP2 N-SH2 domain T52S 0.582 | [2] 0.63

B30: NCAPD2_Y6 (peptide)
chain: MAPQMYEFHLP
inactive: SHP2 C-SH2 domain E139D 0.954 | [1] 0.886 | SHP2 N-SH2 domain L43F 0.904 | SHP2 N-SH2 domain T42A 0.709 | SHP2 N-SH2 domain T52S 0.691 | [2] 1

B31: NDRG2_Y47_G48V (peptide)
chain: SVETPYVSVTF
inactive: SHP2 C-SH2 domain E139D 1.01 | [1] 1.41 | SHP2 N-SH2 domain L43F 1.27 | SHP2 N-SH2 domain T52S 1.5 | [2] 1.46
active: SHP2 N-SH2 domain T42A 3.22

B32: NDST1_Y714_R709Q (peptide)
chain: QAYSWYQHQRA
inactive: SHP2 C-SH2 domain E139D 1.34 | [1] 1.19 | SHP2 N-SH2 domain L43F 1.14 | SHP2 N-SH2 domain T42A 1.28 | SHP2 N-SH2 domain T52S 1.18 | [2] 1.34

B33: NDUFS8_Y84_P85L (peptide)
chain: PATINYLFEKG
inactive: SHP2 C-SH2 domain E139D 1.58 | [1] 0.881 | SHP2 N-SH2 domain L43F 1.41 | SHP2 N-SH2 domain T42A 1.67 | SHP2 N-SH2 domain T52S 1.02 | [2] 1.42

B34: NEB_Y2770 (peptide)
chain: AKRKGYDMRVD
inactive: SHP2 C-SH2 domain E139D 0.552 | [1] 0.47 | SHP2 N-SH2 domain L43F 0.449 | SHP2 N-SH2 domain T42A 0.465 | SHP2 N-SH2 domain T52S 0.519 | [2] 0.435

B35: NEB_Y2770_R2773Q (peptide)
chain: AKRKGYDMQVD
inactive: SHP2 C-SH2 domain E139D 0.499 | [1] 0.501 | SHP2 N-SH2 domain L43F 0.726 | SHP2 N-SH2 domain T42A 0.403 | SHP2 N-SH2 domain T52S 0.477 | [2] 0.647

B36: NEDD4L_Y680_Y679C (peptide)
chain: MFNPCYGLFEY
inactive: SHP2 C-SH2 domain E139D 1.1 | [1] 1.04 | SHP2 N-SH2 domain L43F 1.17 | SHP2 N-SH2 domain T42A 1.06 | SHP2 N-SH2 domain T52S 1.03 | [2] 1.05

B37: NEDD4L_Y680_Y679C_YF (peptide)
chain: MFNPCYGLFEF
inactive: SHP2 C-SH2 domain E139D 1.54 | [1] 1.18 | SHP2 N-SH2 domain L43F 1.21 | SHP2 N-SH2 domain T42A 1.26 | SHP2 N-SH2 domain T52S 1.16 | [2] 1.37

Reference: the supplement of paper PMC10369915
